Experimental data published in PubChem BioAssay AID485294 (National Center for Advancing Translational Sciences (NCATS), 2010).
The whole screen tested about 370,000 compounds, of which about 150 (0.041%) were called active. The shares of active, inactive and inconclusive entries below differ from those in the screen. Calls come from the whole dose curve; as a rule, active = well fitted inhibition curve with a large enough effect; inconclusive = small, poorly fitted or top-dose-only effect; inactive = flat fitted curve, though single readings scatter. No potency is given beside an inconclusive call; the fits are too rough.

Each molecule was assayed against Beta-lactamase (Escherichia coli (strain K12)) (UniProt P00811) (assay: qHTS Inhibitors of AmpC Beta-Lactamase (assay with detergent)). Conditions: AmpC hydrolysis of nitrocefin, absorbance 480 nm, 0.01% Triton; series mostly up to 114 µM.
Procedure, shortened: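 20 mM phosphate pH 7.0 + 0.01% (detergent screen) or 0.0001% Triton X-100; 5.3 nM AmpC reagent; cpd preinc 15 min RT; nitrocefin (800 uM stock) to start; A480 q20 s × 4 min; Activity was normalised to no-enzyme and no-compound control wells.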
Note: nearly all actives have a fitted effect of over 25% in size.
Potency is the fitted concentration of half-maximal effect; tags give direction and shape of the fitted curve.

Sequence of UniProt P00811 (P00811 whole entry, looked up): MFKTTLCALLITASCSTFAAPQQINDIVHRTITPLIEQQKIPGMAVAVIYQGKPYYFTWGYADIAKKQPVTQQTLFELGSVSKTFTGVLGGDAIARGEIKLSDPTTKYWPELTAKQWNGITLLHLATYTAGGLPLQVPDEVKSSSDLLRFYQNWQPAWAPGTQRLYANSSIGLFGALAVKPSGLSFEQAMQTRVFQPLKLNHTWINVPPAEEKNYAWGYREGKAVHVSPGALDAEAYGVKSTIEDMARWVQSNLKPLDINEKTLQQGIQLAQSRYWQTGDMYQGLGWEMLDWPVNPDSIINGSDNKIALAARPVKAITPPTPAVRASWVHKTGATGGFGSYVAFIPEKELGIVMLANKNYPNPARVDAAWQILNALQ

SMILES	Potency
C/C(=N\NC(=O)Cc1ccc(Cl)cc1)c1cccnc1	inconclusive [inhibitor, partial curve]
C/C(=N/Nc1nc(C)cc(C)n1)c1ccc(Br)cc1	inactive
Cc1ccc(-c2csc(=S)n2CC(=O)OCC(=O)NC(C)C(C)C)cc1 (stereo unspecified)	inactive
Cc1n[nH]c(=O)nc1NCc1ccccc1	inconclusive [inhibitor, full curve, poor fit]
COc1ccc(CC(=O)NCC(=O)N/N=C(/C)c2ccco2)cc1	inconclusive [inhibitor, single point]
COC(=O)C1CCN(S(=O)(=O)CCNC(=O)c2cccc(OC)c2)CC1	inconclusive [inhibitor, partial curve, poor fit]
O=C(Cn1cnc2c(nnn2Cc2ccccc2)c1=O)NCc1ccco1	inconclusive [inhibitor, full curve]
C/C(=N\NC(=O)C1(C)CC1(Br)Br)c1ccc(C)cc1C (stereo unspecified)	inconclusive [inhibitor, full curve, poor fit]
O=C(CSc1nnc(NC(=O)C2CCC2)s1)NC1CC1	inconclusive [inhibitor, partial curve]
CCOC(=O)c1c(-c2ccc(C)cc2)csc1NC(=O)C1CC=CCC1C(=O)O (stereo unspecified)	inconclusive [inhibitor, full curve]
O=C(CCCCl)NC(=S)Nc1ccc(N2CCOCC2)cc1	inactive
CCOC(=O)c1c(-n2c(C)cc(C=O)c2C)sc2c1CCCC2	inactive
CCc1nn2c(=O)c(S(=O)(=O)Nc3ccccc3)c(C)nc2s1	inconclusive [inhibitor, full curve, poor fit]
COc1ccc(CC(=O)c2ccc(OC)c(OC)c2C)cc1OC	inactive
O=S(=O)(c1ccc(NC(=S)NC2CC2)cc1)N1CCOCC1	inactive
Nc1c(C(=O)O)sc2nc(-c3ccccc3)cc(-c3ccccc3)c12	inactive
COc1cccc(CC(=O)Nc2ccc3nc(Nc4cccc(C(F)(F)F)c4)cc(C)c3c2)c1	inactive
N#CC1=C(N)Oc2cc(N)ccc2C1c1ccc(F)cc1 (stereo unspecified)	inactive
CCOC(=O)/C(C(=Nc1ccccc1)Nc1ccccc1)=C(\C)O	inconclusive [inhibitor, full curve, poor fit]
O=C(CSc1nc(C(F)(F)F)cc(=O)[nH]1)N1CCC(Cc2ccccc2)CC1	inconclusive [inhibitor, full curve, poor fit]
Cn1c[n+](C)cc1C(O)c1ccccc1 (stereo unspecified)	inconclusive [inhibitor, full curve, poor fit]
CS(=O)(=O)N(CC(=O)N1CCCCC1)C1CCCCC1	inconclusive [inhibitor, full curve, poor fit]
COc1ccc(NC(=O)c2sc3ncn(CC(=O)N4CCN(c5ccccn5)CC4)c(=O)c3c2C)c(OC)c1	inactive
CCOc1c(OC)cccc1C1CC(=O)Nc2cc(OC)c(OC)cc21 (stereo unspecified)	inconclusive [inhibitor, full curve, poor fit]

SMILES	Potency
CC(=O)N1C(=O)C(=C2C=C(C)OC(C)=C2)c2ccccc21	inconclusive [inhibitor, full curve, poor fit]
Cc1noc(C)c1COc1ccc(C(=O)OCC(=O)NCc2ccccc2Cl)cc1	inconclusive [inhibitor, full curve, poor fit]
Fc1ccc(-c2cc3nc(-c4ccccc4)cc(N4CCN(CCN5CCOCC5)CC4)n3n2)cc1	inconclusive [inhibitor, partial curve, poor fit]
O=C(CCCn1cncn1)N1CCCC(N2CCN(c3ccccc3F)CC2)C1 (stereo unspecified)	inconclusive [inhibitor, full curve, poor fit]
O=C(Nc1ccc(F)cc1Cl)c1cnc(N2CCOCC2)c2ccccc12	inactive
COc1cccc(Cn2c(-c3cccs3)noc2=O)c1	inconclusive [inhibitor, full curve]
CC(C)(C)C(=O)Nc1cc2c3c(c1)CCC(=O)N3CCC2	inconclusive [inhibitor, full curve, poor fit]
COc1ccc2cc(C3NC(=O)c4ccccc4N3)c(Cl)nc2c1 (stereo unspecified)	inconclusive [inhibitor, single point]
CCOC(=O)N1CCN(C(=O)CN(C2CCCCC2)S(=O)(=O)c2c(C)cc(C)cc2C)CC1	inactive
O=C(Cc1c(F)cccc1Cl)Nc1ccccc1-c1ccccc1	inconclusive [inhibitor, partial curve, poor fit]
COc1cccc(-c2nnc(SCC(=O)Nc3ccc(S(N)(=O)=O)cc3)n2C)c1	inconclusive [inhibitor, full curve, poor fit]
COc1ccc(N=Cc2oc3ccc4ccccc4c3c2O)cc1	inconclusive [inhibitor, partial curve, poor fit]
CCOc1ccc(CN2CCC(=O)NC2=O)cc1	inconclusive [inhibitor, partial curve]
CC1CCCC(C)N1C(=O)COc1ccc(-c2nnco2)cc1 (stereo unspecified)	inconclusive [inhibitor, full curve, poor fit]
O=C(NCc1nc(-c2ccccc2)cs1)c1ccccc1	inactive
Cc1ccc(S(=O)(=O)N/N=C/c2cnn(C)c2C)cc1	inconclusive [inhibitor, partial curve, poor fit]
CN(C(=O)COC(=O)C1CCN(S(=O)(=O)c2ccc3c(c2)OCCO3)CC1)C1CCS(=O)(=O)C1 (stereo unspecified)	inconclusive [inhibitor, partial curve]
COc1cc(NC(=S)N2CCC(C(O)(c3ccccc3)c3ccccc3)CC2)cc(OC)c1	inconclusive [inhibitor, full curve, poor fit]
CCN(CC)CC(O)COc1ccc2c(c1)c(C(C)=O)c(C)n2-c1ccccc1 (stereo unspecified)	inconclusive [inhibitor, partial curve, poor fit]
Cc1ccccc1Cn1c(C)c(CNCCCc2ccccc2)c(C(=O)O)c1C	inactive
O=C(COC(=O)c1cc(S(=O)(=O)N2CCc3ccccc3C2)ccc1Cl)NCc1ccco1	inconclusive [inhibitor, partial curve]
CCc1cccc2c(C(=O)COC(=O)c3ccccc3)c[nH]c12	inconclusive [inhibitor, partial curve, poor fit]
Cc1ccc(-c2noc(-c3cccs3)n2)cc1	inactive
Cc1ccc(NC(=O)CCNC(=O)Cn2ccc3ccccc3c2=O)cc1F	inconclusive [inhibitor, full curve, poor fit]

SMILES	Potency
O=C(CCC(=O)c1cccs1)NCCc1ccc(F)cc1	inconclusive [inhibitor, full curve]
COc1ccc(OC)c(NC(=O)C2CCN(c3ncccn3)CC2)c1	inactive
CC(=O)Oc1cccc(/C=C2\C=C(c3ccc(C)cc3)OC2=O)c1	inactive
CC(OC(=O)c1nn(C)c(=O)c2ccccc12)C(=O)NC1CCCCC1C (stereo unspecified)	inconclusive [inhibitor, partial curve]
Cc1ccc2nc3c(c(Nc4ccc(C)c(C)c4)c2c1)CCC3	inactive
CCC1CCCCN1C(=O)COc1ccc(N(C)S(=O)(=O)c2ccc(C)cc2)cc1 (stereo unspecified)	inactive
O=[N+]([O-])c1ccc(N2CCCCC2)cc1NCCOc1ccccc1	inactive
CCCCCCN=C1CC(C)(C)CC(=O)/C1=C(/O)CCC	inactive
CCCN(CCC)C(=O)Nc1cc(Cl)ccc1OC	inactive
CCCN1CCc2c(sc(NC(=O)Cc3ccc(F)cc3)c2C(N)=O)C1	inconclusive [inhibitor, full curve, poor fit]
CC1(C)Cc2ccccc2C(N/N=C/c2cccc(F)c2)=N1	inconclusive [inhibitor, partial curve, poor fit]
CSc1sccc1/C=N/NC(=O)c1ccncc1	inconclusive [inhibitor, partial curve, poor fit]
Cc1ccc(NC(=O)CSc2nc(N)c3cc4c(nc3n2)CCCC4)cc1	inactive
Cc1ccc(-c2nnn(CC(=O)N(c3ccccc3)C(C(=O)NC(C)(C)C)c3cccs3)n2)o1 (stereo unspecified)	inconclusive [inhibitor, partial curve, poor fit]
CCOC(=O)C1CCN(C(=O)c2cccc(NC(=O)C(CC)CC)c2)CC1	inconclusive [inhibitor, full curve]
Nc1cccc(-c2ccc(CO)o2)c1	inactive
CC(C(=O)N1CCN(c2ccccc2)CC1)N1C(=O)C2CC=CCC2C1=O (stereo unspecified)	inconclusive [inhibitor, partial curve, poor fit]
c1ccc(-c2nc3ccccc3c3nncn23)cc1	inconclusive [inhibitor, full curve, poor fit]
Cn1c(SCC(=O)N/N=C/C=C\c2ccco2)nc2ccccc21	inactive
CC(C)NCC(O)COc1c(F)cc(Br)cc1F (stereo unspecified)	inconclusive [inhibitor, single point]
CN(C)c1ccc(NC(=O)Cn2cc(S(=O)(=O)Cc3ccccc3Cl)c3ccccc32)cc1	inactive
Cc1cc([N+](=O)[O-])nn1CC(=O)Nc1cnc2ccccc2c1	inconclusive [inhibitor, partial curve, poor fit]
CCOC(=O)c1ccc(NC(=O)CSc2ncc(S(=O)(=O)c3ccc(C)c(Cl)c3)c(=O)[nH]2)cc1	inconclusive [inhibitor, single point]
